# Whole data set: some 33,000 sequences, median “E-score (-0.5 to 0.5)” near -0.013, cut for the highest 2% near 0.3. The list shows a part of the results.
# Biological target: T1, Msn1 (UniProt P22148)
# T1 sequence: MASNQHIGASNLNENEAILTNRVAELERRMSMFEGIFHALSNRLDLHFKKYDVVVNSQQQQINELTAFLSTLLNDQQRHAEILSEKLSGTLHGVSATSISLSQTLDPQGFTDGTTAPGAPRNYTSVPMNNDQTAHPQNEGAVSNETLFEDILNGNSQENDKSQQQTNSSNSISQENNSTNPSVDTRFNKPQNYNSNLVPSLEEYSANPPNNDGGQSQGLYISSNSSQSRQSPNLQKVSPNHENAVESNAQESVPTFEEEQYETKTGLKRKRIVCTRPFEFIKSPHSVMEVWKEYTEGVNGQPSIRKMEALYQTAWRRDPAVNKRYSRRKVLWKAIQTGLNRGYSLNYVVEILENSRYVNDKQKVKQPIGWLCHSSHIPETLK
# Test: PBM E-score (8-mer binding enrichment) (E-score (-0.5 to 0.5)); higher = stronger / more preferred TF binding; most listed sequences are background and not binding sites
# Settings: protein concentration: 200 nM; construct: GST-full length
# Summary of the method: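 E-scores (a modified Wilcoxon-Mann-Whitney statistic) were assigned by the Universal PBM Analysis Suite to every ungapped eight-base word pooled with its reverse complement. The input came from universal all-10-mer Agilent arrays made double-stranded by primer extension and probed with GST-tagged yeast transcription factors at about 100-200 nM. Fluorescent anti-GST detected bound protein, and masliner normalised the scans.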
row,Sequence,PBM E-score
1,CGCCCACC,-0.0582
2,TATAGTGA,-0.0121
3,ACTTAGTC,-0.0101
4,CACGGAAC,0.132
5,CGTATAGA,0.207
6,AGAAAGGC,-0.18
7,TCTAGCAA,0.0862
8,CGTCCTTC,0.0919
9,GCATCTAA,0.12
10,ATGGGAAC,-0.00579
11,ATTCCGAA,0.121
12,CCCTATCG,-0.2
13,CCTACCAC,-0.163
14,ATAGCGGG,-0.192
15,CATCATAG,0.0295
16,GGACACAA,0.462
17,CAGTCGCG,0.0907
18,ATGCTCAA,-0.0471
19,CACGTTTC,-0.22
20,ATCACTGG,-0.0113
21,ATCTTGCG,-0.0566
22,ACGCAGTA,-0.0834
23,GGATGTCA,0.305
24,CTCTGCTA,-0.112
25,CCGTGAGA,-0.0625

row,Sequence,PBM E-score
1,GACGTAAA,0.137
2,GCCTGCGC,0.0271
3,ACACCGGA,-0.0117
4,GTAACCAA,0.0319
5,ACTTTCAA,0.171
6,GATAAGAC,0.0489
7,CAGTGAAC,0.052
8,GCTGCGTA,-0.124
9,GCGCGGAA,-0.129
10,CAGGTGTA,-0.0913
11,GTCCAATA,0.231
12,GAAGGGCC,-0.143
13,GAGACGCA,0.06
14,AAGAAAAT,0.178
15,CAGGTACG,-0.126
16,CGCAATCA,0.0447
17,CTATAAGC,-0.144
18,GAGACATC,0.265
19,GACTACTA,0.0782
20,CATGCGGG,-0.114
21,ATGGCTAC,0.00174
22,CAAGCGTC,-0.0696
23,AGGCGGGA,0.0375
24,CCTGACAA,0.202
25,CGAACGAC,0.118

row,Sequence,PBM E-score
1,CCAGGGTC,-0.315
2,TACGGCAA,0.127
3,AGGCTGTC,-0.209
4,GATCCGCA,-0.0581
5,CCCGCATC,-0.309
6,ACCTGTAC,0.102
7,AACCCCAA,-0.06
8,ATTCCAGG,0.0135
9,GATAAGTA,0.118
10,AGACCTCG,0.0578
11,CCCGTCCA,-0.0207
12,AAGCGATT,-0.00343
13,CCATAGTC,-0.1
14,GAATGGTC,-0.135
15,ACAATGGT,-0.147
16,CTTCGGGA,0.15
17,CCGCGTGA,0.0677
18,TCAAGCAA,-0.0994
19,AGCCGACG,0.0208
20,CGAGATCA,0.0442
21,CATTGCCA,0.104
22,CCACTCCA,-0.176
23,ACTTCGTG,0.00042
24,ACGCGGCT,-0.0473
25,AGCTACAT,0.0298

row,Sequence,PBM E-score
1,CGAAAATC,0.165
2,TATCGTCA,0.108
3,AGTACCTG,-0.0335
4,CCATTCTA,0.0414
5,GGGTACCC,-0.357
6,CAAAGCCA,-0.0655
7,CATACATC,0.151
8,AATACTGG,-0.0248
9,CCCAGCAC,-0.148
10,GCGTCCTA,0.168
11,CCCGGCCG,-0.148
12,CGTAAAGA,0.0242
13,CTGCTAGA,0.065
14,CAGACCCA,-0.137
15,CATATCAG,0.025
16,GATTGCGA,0.0849
17,CGGTTGAC,-0.186
18,AGATTCTG,-0.0613
19,ACGCCAGA,-0.16
20,CAAGCTAA,-0.027
21,AGACTCCG,-0.0253
22,CGATTGAC,0.151
23,ATACGGGA,0.0286
24,ACCCGACA,0.149
25,CCTATATA,0.138

row,Sequence,PBM E-score
1,CAACTTCG,-0.0475
2,AATATTTG,0.239
3,AGCGTCCA,-0.0794
4,CTTCCTGA,-0.0052
5,CGCGGTGC,-0.123
6,ATCCACAT,0.0887
7,AGGGGAGG,-0.037
8,AAACAGTG,0.0913
9,CATGTAGA,0.077
10,ATCTGCAC,-0.0895
11,GCTGGATA,0.0185
12,GACTTTCC,0.195
13,AGACGATG,-0.0295
14,ATCCGACA,0.128
15,CACCACAC,-0.137
16,CGTGACAG,0.0649
17,CCGAAGCA,0.149
18,CAACATTG,0.0465
19,AGCGCGGG,-0.0804
20,AACCGTCC,-0.0955
21,ATTAAGAG,-0.081
22,ACCAGCCC,-0.18
23,GATGCCAC,-0.0119
24,ACCTTAAC,0.123
25,AGTTTCGC,0.0708

row,Sequence,PBM E-score
1,GGTGTATA,-0.194
2,GCGGTGCC,-0.202
3,GATGCCTA,-0.027
4,CACTAGTA,0.138
5,GACTTACA,0.181
6,AACAGATA,0.139
7,ACCTATAA,0.0364
8,ATCGAGTC,-0.0128
9,CTGCTGTC,-0.0317
10,CAGTGGGG,-0.302
11,GAGGAAAC,0.0548
12,ACCAGGCC,0.0828
13,TAAATCGA,0.138
14,CCCGCTAA,-0.252
15,AACGCACT,-0.0232
16,CTGGGACA,0.444
17,CCGGCTAA,0.0358
18,GTAGCGCA,-0.107
19,GCGTATTA,0.0669
20,TAGCGCAA,0.0683
21,AAACTTCT,0.227
22,GGCAAGCC,-0.328
23,AATTTGTG,0.186
24,AAGGACAA,0.485
25,ACTCCCTA,-0.121

row,Sequence,PBM E-score
1,CGGCTTAG,-0.159
2,CCTAACAC,0.00579
3,ACGGTCTC,-0.067
4,AGTACGCC,-0.167
5,GGGTAGTA,-0.0745
6,CACATCAG,-0.119
7,ATTAGTCG,0.16
8,GAAGTCCA,0.212
9,GCATTTAA,0.0963
10,CCATCGCG,0.0581
11,CCGAGCAC,-0.0129
12,AGAAGGCA,-0.258
13,CACCCGAA,0.144
14,AATGCCGA,0.0819
15,GTCGTCGA,-0.042
16,AGCGCCGC,-0.145
17,AGCAGAGA,-0.216
18,GGCGAAAA,0.24
19,ACGAAATG,0.0933
20,ACGTAGGA,0.151
21,CTTTAGAA,0.121
22,ACGCTGTA,0.0519

# — the supplement of paper PMC3334620
